# Measurements published in the supplement of paper PMC8728848.
# This is one part of the list.
# B1: Gal 4 (Homo sapiens), Q8K419 (protein)
# chain: MAYVPAPGYQPTYNPTLPYKRPIPGGLSVGMSVYIQGMAKENMRRFHVNFAVGQDDGADVAFHFNPRFDGWDKVVFNTMQSGQWGKEEKKKSMPFQKGKHFELVFMVMPEHYKVVVNGNSFYEYGHRLPVQMVTHLQVDGDLELQSINFLGGQPAAAPYPGAMTIPAYPAGSPGYNPPQMNTLPVMTGPPVFNPRVPYVGALQGGLTVRRTIIIKGYVLPTARNFVINFKVGSSGDIALHLNPRIGDSVVRNSFMNGSWGAEERKVAYNPFGPGQFFDLSIRCGMDRFKVFANGQHLFDFSHRFQAFQMVDTLEINGDITLSYVQI
# What was measured:
# Assay in all cases: glycan array binding signal (z-score within array); higher = stronger binding
# Details in all cases: glycan notation: IUPAC condensed, linker removed
# [1] = target: Gal(a1-3)Gal(b1-3)GlcNAc
# Method in brief: (§1)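 The binding signal is a Z-score computed within each array and averaged over linkers. Arrays of the same protein sequence at different concentrations or buffers were also averaged together. Data originate from 3228 arrays in the Consortium for Functional Glycomics database, kept only where the protein sequence was available.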
# [2] = target: Gal(a1-3)Gal(b1-3)GlcNAc(b1-2)Man(a1-3)[Gal(a1-3)Gal(b1-3)GlcNAc(b1-2)Man(a1-6)]Man(b1-4)GlcNAc(b1-4)GlcNAc
# Method in brief: as §1
# [3] = target: Gal(a1-3)Gal(b1-3)GlcNAc(b1-3)GalNAc
# Method in brief: as §1
# [4] = target: Gal(a1-3)Gal(b1-3)GlcNAc(b1-6)GalNAc
# Method in brief: as §1
# [5] = target: Gal(a1-3)Gal(b1-3)[Fuc(a1-4)]GlcNAc(b1-2)Man(a1-3)[Gal(a1-3)Gal(b1-3)[Fuc(a1-4)]GlcNAc(b1-2)Man(a1-6)]Man(b1-4)GlcNAc(b1-4)GlcNAc
# Method in brief: as §1
# [6] = target: Gal(a1-3)Gal(b1-4)Glc
# Method in brief: as §1
# [7] = target: Gal(a1-3)Gal(b1-4)GlcNAc
# Method in brief: as §1
# [8] = target: Gal(a1-3)Gal(b1-4)GlcNAc(b1-3)GalNAc
# Method in brief: as §1
# [9] = target: Gal(a1-3)Gal(b1-4)GlcNAc(b1-6)GalNAc
# Method in brief: as §1
# [10] = target: Gal(a1-3)Gal(b1-4)[Fuc(a1-3)]GlcNAc
# Method in brief: as §1
# [11] = target: Gal(a1-3)Gal(b1-4)[Fuc(a1-3)]GlcNAc(b1-2)Man(a1-3)[Gal(a1-3)Gal(b1-4)[Fuc(a1-3)]GlcNAc(b1-2)Man(a1-6)]Man(b1-4)GlcNAc(b1-4)GlcNAc
# Method in brief: as §1
# [12] = target: Gal(a1-3)GalNAc
# Method in brief: as §1
# [13] = target: Gal(a1-3)[Gal(a1-4)]Gal(b1-4)GlcNAc
# Method in brief: as §1
# [14] = target: Gal(a1-4)Gal(b1-3)GlcNAc(b1-2)Man(a1-3)[Gal(a1-4)Gal(b1-3)GlcNAc(b1-2)Man(a1-6)]Man(b1-4)GlcNAc(b1-4)GlcNAc
# Method in brief: as §1
# [15] = target: Gal(a1-4)Gal(b1-4)Glc
# Method in brief: as §1
# [16] = target: Gal(a1-4)Gal(b1-4)GlcNAc
# Method in brief: as §1
# [17] = target: Gal(a1-4)Gal(b1-4)GlcNAc(b1-2)Man(a1-3)[Gal(a1-4)Gal(b1-4)GlcNAc(b1-2)Man(a1-6)]Man(b1-4)GlcNAc(b1-4)GlcNAc
# Method in brief: as §1
# [18] = target: Gal(a1-4)Gal(b1-4)GlcNAc(b1-3)Gal(b1-4)Glc
# Method in brief: as §1
# [19] = target: Gal(a1-4)GlcNAc
# Method in brief: as §1
# [20] = target: Gal(a1-6)Glc
# Method in brief: as §1
# [21] = target: Gal(b1-2)Gal
# Method in brief: as §1
# [22] = target: Gal(b1-3)Gal
# Method in brief: as §1
# [23] = target: Gal(b1-3)Gal(b1-4)GlcNAc
# Method in brief: as §1
# [24] = target: Gal(b1-3)Gal(b1-4)GlcNAc(b1-2)Man(a1-3)[Gal(b1-3)Gal(b1-4)GlcNAc(b1-2)Man(a1-6)]Man(b1-4)GlcNAc(b1-4)GlcNAc
# Method in brief: as §1
# [25] = target: Gal(b1-3)GalNAc
# Method in brief: as §1
# [26] = target: Gal(b1-3)GalNAc(a1-3)[Fuc(a1-2)]Gal(b1-4)Glc
# Method in brief: as §1
# [27] = target: Gal(b1-3)GalNAc(a1-3)[Fuc(a1-2)]Gal(b1-4)GlcNAc
# Method in brief: as §1
# [28] = target: Gal(b1-3)GalNAc(b1-3)Gal(a1-4)Gal(b1-4)Glc
# Method in brief: as §1
# [29] = target: Gal(b1-3)GalNAc(b1-4)Gal(b1-4)Glc
# Method in brief: as §1
# [30] = target: Gal(b1-3)GalNAc(b1-4)[Neu5Ac(a2-3)]Gal(b1-4)Glc
# Method in brief: as §1
# [31] = target: Gal(b1-3)GlcNAc
# Method in brief: as §1
# [32] = target: Gal(b1-3)GlcNAc(a1-3)Gal(b1-4)GlcNAc
# Method in brief: as §1
# [33] = target: Gal(b1-3)GlcNAc(a1-6)Gal(b1-4)GlcNAc
# Method in brief: as §1
# [34] = target: Gal(b1-3)GlcNAc(b1-2)Man(a1-3)[Gal(b1-3)GlcNAc(b1-2)Man(a1-6)]Man(b1-4)GlcNAc(b1-4)GlcNAc
# Method in brief: as §1
# [35] = target: Gal(b1-3)GlcNAc(b1-2)Man(a1-3)[Gal(b1-3)GlcNAc(b1-2)Man(a1-6)]Man(b1-4)GlcNAc(b1-4)[Fuc(a1-6)]GlcNAc
# Method in brief: as §1
# [36] = target: Gal(b1-3)GlcNAc(b1-2)Man(a1-3)[GlcNAc(b1-4)][Gal(b1-3)GlcNAc(b1-2)Man(a1-6)]Man(b1-4)GlcNAc(b1-4)GlcNAc
# Method in brief: as §1
# [37] = target: Gal(b1-3)GlcNAc(b1-2)[Gal(b1-3)GlcNAc(b1-6)]Man(a1-6)[Gal(b1-3)GlcNAc(b1-2)Man(a1-3)]Man(b1-4)GlcNAc(b1-4)GlcNAc
# Method in brief: as §1
binder,measurement,setting,value
B1,glycan array binding signal (z-score),[1],0.184
same,glycan array binding signal (z-score),[2],-0.192
same,glycan array binding signal (z-score),[3],-0.071
same,glycan array binding signal (z-score),[4],-0.031
same,glycan array binding signal (z-score),[5],-0.192
same,glycan array binding signal (z-score),[6],0.543
same,glycan array binding signal (z-score),[7],0.25
same,glycan array binding signal (z-score),[8],-0.166
same,glycan array binding signal (z-score),[9],-0.139
same,glycan array binding signal (z-score),[10],-0.201
same,glycan array binding signal (z-score),[11],-0.192
same,glycan array binding signal (z-score),[12],-0.196
same,glycan array binding signal (z-score),[13],-0.204
same,glycan array binding signal (z-score),[14],-0.201
same,glycan array binding signal (z-score),[15],-0.194
same,glycan array binding signal (z-score),[16],-0.198
same,glycan array binding signal (z-score),[17],-0.194
same,glycan array binding signal (z-score),[18],0.525
same,glycan array binding signal (z-score),[19],-0.202
same,glycan array binding signal (z-score),[20],-0.202
same,glycan array binding signal (z-score),[21],-0.201
same,glycan array binding signal (z-score),[22],0.459
same,glycan array binding signal (z-score),[23],0.41
same,glycan array binding signal (z-score),[24],-0.037
same,glycan array binding signal (z-score),[25],-0.028
same,glycan array binding signal (z-score),[26],13.2
same,glycan array binding signal (z-score),[27],2.3
same,glycan array binding signal (z-score),[28],-0.053
same,glycan array binding signal (z-score),[29],0.027
same,glycan array binding signal (z-score),[30],-0.032
same,glycan array binding signal (z-score),[31],-0.094
same,glycan array binding signal (z-score),[32],0.021
same,glycan array binding signal (z-score),[33],-0.159
same,glycan array binding signal (z-score),[34],-0.133
same,glycan array binding signal (z-score),[35],-0.21
same,glycan array binding signal (z-score),[36],-0.159
same,glycan array binding signal (z-score),[37],-0.107
